Assay results reported in US20240124575A1 (SIMCERE ZAIMING PHARMACEUTICAL, published 2024).

T1: murine CD33-His protein (murine, UniProt Q63994 18-240, limits assumed)
T1 construct: also called murine CD33 protein
T1 sequence (looked up): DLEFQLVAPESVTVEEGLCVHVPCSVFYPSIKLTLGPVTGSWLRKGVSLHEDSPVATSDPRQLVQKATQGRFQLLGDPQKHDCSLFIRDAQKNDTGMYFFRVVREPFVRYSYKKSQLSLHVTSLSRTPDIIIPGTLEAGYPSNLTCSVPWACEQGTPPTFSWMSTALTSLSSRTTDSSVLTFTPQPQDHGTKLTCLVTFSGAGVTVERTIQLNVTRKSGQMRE

T2: murine CD33 protein (murine, UniProt Q63994 18-240, limits assumed)
T2 construct: The printed catalogue numbers for murine and monkey CD33 may be interchanged; also called murine CD33-His protein
T2 sequence (looked up): T1 sequence (looked up)

B1: S006-NB146-39-aH15 (Fc fusion)
chain: EVQLVESGGGLVQPGGSLRLSCAASGIILDYYPIGWFRQAPGKGREGVAFITNSDDSTIYTNYADSVKGRFTISRDKNSLYLQMNSLRAEDTAVYYCAARSTYIVGRNENALNSADYDYWGQGTMVTVSS[letters of human IgG1 Fc with changes left out]
notes: also called humanized VHH-Fc
B2: S006-NB146-181 (Fc fusion)
chain: QVQLVESGGGLVQAGGSLRLSCAASGSIFSMGWYRQAPGKQRELVAAIANGGTTTNYANSVKDRFTISRDNAKNTVYLQMNSLRPEDTAVYYCYAKRSWDSSSYWGQGTQVTVSS[letters of human IgG1 Fc with changes left out]
B3: S006-NB147-220 (Fc fusion)
chain: QLQLVESGGGMVQPGGSLRLSCAASGFTLDYYAIGWFRQAPGKEREGVSCINSGDSSTYYADSVKGRFTISRDNAENTVYLQMNSLKPEDTAVYYCATVDTLIVAGNLEECRYDMDYWGKGTLVTVSS[letters of human IgG1 Fc with changes left out]
notes: also called S006-NB147-220 VHH-Fc
B4: S006-NB146-46 (Fc fusion)
chain: QLQLVESGGGLVQPGGSLRLSCTAPGIVLDYYPIGWFRQAPGKEREGVSFITNSDDSTIYTNYADSVKGRFTISREKNTVYLQMNSLKPEDTAVYYCAARSTYIVGRNENALNASDYDYWGQGTQVTVSS[letters of human IgG1 Fc with changes left out]
notes: also called S006-NB146-46 VHH-Fc
B5: S006-NB147-25 (Fc fusion)
chain: QLQLVESGGGLVQAGGSLRLSCKASGVTFSINALGWYRQAPGKQREMVAVISSGGSTNYVDSVKGRFTISRDNAKNTVYLQMNSLKPEDTAVYYCNADVVGSSWSPEYDYWGQGTQVTVST[letters of human IgG1 Fc with changes left out]
notes: also called S006-NB147-25 VHH-Fc
B6: S006-NB146-16 (Fc fusion)
chain: EVQLVESGGGLVPAGGSLRLSCAASGSIANIQVMGWYRQAPGSQRALVAQITVTGDRATNYADSVKGRFTISRDNAKNAVYLSINPLKSEDTGVYYCNARSYYGQHNYWGQGTQVTVSS[letters of human IgG1 Fc with changes left out]
notes: also called S006-NB146-16 VHH-Fc
B7: S006-NB146-150 (Fc fusion)
chain: QLQLVESGGGLVQAGGSLRLSCAASGNSLGVYNLGWYRQAPGEQRELVATINSRGDTNYVNSVAGRFTISRVNARNTENTVYLQMNRLQPEDTAVYYCIAQRGWGREYDIWGPGTQVTVSS[letters of human IgG1 Fc with changes left out]
notes: also called S006-NB146-150 VHH-Fc

Experiments:
human CD33-V-his = biological target: T3, human CD33-V-his (human, UniProt P20138 18-144); experiment: ELISA on coated human CD33-V-his
Chain of human CD33-V-his (P20138 other isoform, or with tags, fused parts or gaps limits assumed): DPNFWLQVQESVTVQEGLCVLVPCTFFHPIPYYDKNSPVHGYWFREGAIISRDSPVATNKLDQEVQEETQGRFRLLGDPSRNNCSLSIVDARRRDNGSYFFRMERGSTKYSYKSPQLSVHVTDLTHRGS
T3 construct: expressed in HEK293E; also called hCD33-V-his; human CD33 protein V-domain; not shown: His tag

murine CD33-His protein = biological target: T1, murine CD33-His protein; experiment: ELISA on coated murine CD33-his
murine CD33 protein [1] = biological target: T2, murine CD33 protein; experiment: ELISA, coated murine CD33, antibody 10 nM
monkey CD33 protein [2] = biological target: T4, monkey CD33 protein (monkey); experiment: ELISA, coated monkey CD33, antibody 0.001 nM
T4 construct: The printed catalogue numbers for murine and monkey CD33 may be interchanged; also called monkey CD33-His protein

murine CD33 protein [3] = biological target: T2, murine CD33 protein; experiment: ELISA, coated murine CD33, antibody 0.1 nM
monkey CD33 protein [4] = biological target: T4, monkey CD33 protein; experiment: ELISA, coated monkey CD33, antibody 0.0001 nM
monkey CD33 protein [5] = biological target: T4, monkey CD33 protein; experiment: ELISA, coated monkey CD33, antibody 0.1 nM
murine CD33 protein [6] = biological target: T2, murine CD33 protein; experiment: ELISA, coated murine CD33, antibody 0.0001 nM
murine CD33 protein [7] = biological target: T2, murine CD33 protein; experiment: ELISA, coated murine CD33, antibody 100 nM
monkey CD33 protein [8] = biological target: T4, monkey CD33 protein; experiment: ELISA, coated monkey CD33, antibody 0.01 nM
monkey CD33 protein [9] = biological target: T4, monkey CD33 protein; experiment: ELISA, coated monkey CD33, antibody 10 nM
[10] = biological target: T5, monkey CD33 on HEK293T-monkey CD33 cells (monkey); experiment: FACS on HEK293T-monkey CD33 cells
T5 construct: whole, on cells

murine CD33 protein [11] = biological target: T2, murine CD33 protein; experiment: ELISA, coated murine CD33, antibody 0.001 nM
monkey CD33 protein [12] = biological target: T4, monkey CD33 protein; experiment: ELISA, coated monkey CD33, antibody 1 nM
murine CD33 protein [13] = biological target: T2, murine CD33 protein; experiment: ELISA, coated murine CD33, antibody 1 nM
monkey CD33 protein [14] = biological target: T4, monkey CD33 protein; experiment: ELISA, coated monkey CD33, antibody 100 nM
monkey CD33 protein [15] = biological target: T4, monkey CD33 protein; experiment: SPR (Biacore), antibody captured on Protein A chip, monkey CD33 protein as analyte
murine CD33 protein [16] = biological target: T2, murine CD33 protein; experiment: ELISA, coated murine CD33, antibody 0.01 nM
human CD33-His = biological target: T6, human CD33-His (human, UniProt P20138 18-259); experiment: SPR (Biacore), antibody captured on Protein A chip, human CD33-his as analyte
Chain of human CD33-His (P20138 18-259 limits assumed): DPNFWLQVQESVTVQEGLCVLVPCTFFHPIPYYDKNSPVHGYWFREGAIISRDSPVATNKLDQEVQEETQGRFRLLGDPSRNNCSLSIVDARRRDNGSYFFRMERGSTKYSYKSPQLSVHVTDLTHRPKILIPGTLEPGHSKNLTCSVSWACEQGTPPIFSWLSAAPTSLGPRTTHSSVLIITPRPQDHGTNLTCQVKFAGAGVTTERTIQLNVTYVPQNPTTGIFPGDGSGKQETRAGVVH
T6 construct: range 18-259; Bought protein; also called human CD33-his protein; hCD33-his; not shown: His tag

monkey CD33 protein [17] = biological target: T4, monkey CD33 protein; experiment: ELISA, coated monkey CD33, antibody 0.0001 nM; remark: listed apart in the source
monkey CD33 protein [18] = biological target: T4, monkey CD33 protein; experiment: ELISA, coated monkey CD33, antibody 100 nM; remark: listed apart in the source
monkey CD33 protein [19] = biological target: T4, monkey CD33 protein; experiment: ELISA, coated monkey CD33, antibody 0.01 nM; remark: listed apart in the source
[20] = biological target: T5, monkey CD33 on HEK293T-monkey CD33 cells; experiment: FACS on HEK293T-monkey CD33 cells; remark: listed apart in the source
monkey CD33 protein [21] = biological target: T4, monkey CD33 protein; experiment: ELISA, coated monkey CD33, antibody 1 nM; remark: listed apart in the source
monkey CD33 protein [22] = biological target: T4, monkey CD33 protein; experiment: ELISA, coated monkey CD33, antibody 10 nM; remark: listed apart in the source
monkey CD33 protein [23] = biological target: T4, monkey CD33 protein; experiment: ELISA, coated monkey CD33, antibody 0.1 nM; remark: listed apart in the source
monkey CD33 protein [24] = biological target: T4, monkey CD33 protein; experiment: ELISA, coated monkey CD33, antibody 0.001 nM; remark: listed apart in the source

Binder	OD450 (murine CD33 protein [1]) [OD450]	OD450 (monkey CD33 protein [2]) [OD450]	OD450 (murine CD33 protein [3]) [OD450]	OD450 (monkey CD33 protein [4]) [OD450]	OD450 (monkey CD33 protein [5]) [OD450]	OD450 (murine CD33 protein [6]) [OD450]	OD450 (murine CD33 protein [7]) [OD450]	OD450 (monkey CD33 protein [8]) [OD450]	OD450 (monkey CD33 protein [9]) [OD450]	EC50 [10] [nM]	Max MFI [10] [MFI]	OD450 (murine CD33 protein [11]) [OD450]	OD450 (monkey CD33 protein [12]) [OD450]	OD450 (murine CD33 protein [13]) [OD450]	OD450 (monkey CD33 protein [14]) [OD450]	Kd (monkey CD33 protein [15]) [nM]	koff (monkey CD33 protein [15]) [s⁻¹]	kon (monkey CD33 protein [15]) [M⁻¹ s⁻¹]	OD450 (murine CD33 protein [16]) [OD450]	Kd (human CD33-His) [nM]	further results
B1																					binding result (human CD33-V-his): no binding (tested: 100 nM); binding result (murine CD33-His protein): no binding (tested: 100 nM)
B2	0.06	0.07	0.05	0.05	1.02	0.06	0.07	0.26	2.33	121	2900	0.06	2.21	0.06	2.31	27.2	0.00198	72800	0.05		
B3	0.06	0.08	0.06	0.05	1.19	0.06	0.07	0.34	2.46	10.2	6190	0.06	2.23	0.06	2.47	2.43	0.00148	608000	0.06	2.75	koff (human CD33-His): 0.000497 s⁻¹; kon (human CD33-His): 181000 M⁻¹ s⁻¹
B4																0.16	9.36e-05	584000		0.171	OD450 (monkey CD33 protein [17]): 0.06 OD450; OD450 (monkey CD33 protein [18]): 3 OD450; OD450 (monkey CD33 protein [19]): 0.08 OD450; EC50 [20]: 6.13 nM; Max MFI [20]: 2150 MFI; OD450 (monkey CD33 protein [21]): 1.98 OD450; OD450 (monkey CD33 protein [22]): 2.93 OD450; OD450 (monkey CD33 protein [23]): 0.25 OD450; koff (human CD33-His): 3.39e-05 s⁻¹; kon (human CD33-His): 198000 M⁻¹ s⁻¹; OD450 (monkey CD33 protein [24]): 0.06 OD450
B5	0.06	0.1	0.05	0.06	1.39	0.06	0.07	0.47	2.64	31.2	4890	0.06	2.44	0.05	2.58	5.76	0.00234	406000	0.05	1.12	koff (human CD33-His): 0.000158 s⁻¹; kon (human CD33-His): 141000 M⁻¹ s⁻¹
B6	0.06	0.13	0.05	0.06	1.53	0.06	0.07	0.67	2.42	121	2800	0.1	2.26	0.05	2.34	110	0.0154	140000	0.06		
B7	0.08	0.1	0.06	0.05	1.5	0.06	0.17	0.57	2.44	45.1	3310	0.06	2.41	0.07	2.37	41.6	0.0064	154000	0.06		

Where two headings read alike, the source gives them in different places.
